Laboratory results: the supplement of paper PMC11417369
± gives the standard deviation of the averaged measurements. The list shows a part of the results.

What follows are sequences tested on PfAP2-I AP2 domain 3 (GST-tagged) (assay: gcPBM binding intensity (ln(normalized median fluorescence intensity)); higher = stronger DNA binding).
Procedure, shortened: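 GST-tagged P. falciparum DNA-binding domains, expressed in E. coli (about 25 μg on average), were applied for 1 h to an Agilent 4 × 180k array of primer-extended double-stranded 36-bp intergenic genomic probes plus negative controls. The binding buffer was 1× PBS with 1% milk, 0.2 mg/ml BSA, 0.5% salmon testes DNA and 0.03% Triton X-100. Bound protein was detected with Alexa488 anti-GST antibody and scanned at 488 nm. Binding intensity is the highest Masliner-normalised natural-log median intensity across replicate spots of either probe orientation.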

Sequence	gcPBM binding intensity (ln)
TATAAGTGCTCAACGGTGCATTTATAGAAGTTAAAC	10.8 ± 0.58
TTAGATATTAATATATGTACATATTAATATATTTAC [XGTACX_site7119]	7.55 ± 0.45
CACACTTTTTAAATTAACGCATTTCAAAAAAAATAT [CACACA_negctrl_site84]	7.85 ± 0.49
TATTTATACACGCACACACACTTATACATTTATATA [CACACA_site7543]	8.56 ± 0.18
TTTCTTTTTTAGAGGTGTACACGTAGGCCTCTTGGA [XGTACX_site4760]	8.2 ± 0.33
TAAATGTAAAACGAAATGCACACTATGGAAAATATA [CACACA_site724]	9.08 ± 0.45
TATAATTTTTACTGGGTGCACTCGATATTTTAAATA	10.6 ± 0.57
TTTCTATATCTTTCAACACACAAATTTTTTTTTCCA [CACACA_site108]	7.82 ± 0.64
ACATACATACCCCCACGTACGTACCGAAACACCACC [XGTACX_site1982]	9.48 ± 0.39
AATTTTATATATATATGTACATATTTATATGCTTAT [XGTACX_site8180]	7.87 ± 0.39
AATATAAGTGTACATACACACTTTACAATATCATAT [CACACA_site5634]	7.91 ± 0.52
CAAAGAACTTATAGGGTGCTTTACTTATAAGTAAAT [GTGCAC_site9579]	10.8 ± 0.42
GTGGTTGTAATGGTGGTGCATATTGTATATTATGTT	10.5 ± 0.26
ATGTTAACTAAATGTACACACCTATGTTGATGTAAC [CACACA_site5073]	7.87 ± 0.54
AAAGTTTAAATGAGAAGTACAAATTTTTGTTTTTAT [XGTACX_site1844]	7.66 ± 0.52
TATATATATAAAATATGTACATAAAATTATTTATTT [XGTACX_site7666]	8.36 ± 0.34
TCATAGGAGAACTTTTGTACAGATTTTTCTTTTTTT [XGTACX_site2853]	7.42 ± 0.65
GTAATACACATATAATGTACTCATAAATATATTTAT [XGTACX_site4041]	8.04 ± 0.46
AGCAAAAATTAAATAAATAAATATATATATATATAT [TGCATGCA_negctrl_site449]	9.21 ± 0.15
ATATTAATAATATATACACACATAAGTATTGTATAT [CACACA_site4095]	7.52 ± 0.35

Sequence	gcPBM binding intensity (ln)
GCAACATTCTAAGACACACACACACCCATATATATA [CACACA_site1053]	8.45 ± 0.61
AATGATGTCATAGGGGGTACACATAAATGTGAATGT [XGTACX_site6745]	8.68 ± 0.014
AATAATATATATATATATATATATAGATATGTATAT [GTGCAC_negctrl_site653]	8.04 ± 0.25
TATACATAGAAACACACACACATATATATATATATA [CACACA_site2248]	9.43 ± 0.49
GTTTATTCTTTTTATACACACCTTATTTGATTAACA [CACACA_site4567]	8.21 ± 0.52
TTACTACTATATTATACACACATATATATATATATA [CACACA_site2621]	9.4 ± 0.75
TGTGAATAAATAAGCACACATAAACACATATATAAA [CACACA_site6114]	8.27 ± 0.2
TTAAAAGAAAAAATATGTACATATATTATATATATC [XGTACX_site7009]	7.83 ± 0.43
TTTATTTATGTAGATACACACCCATGTTATATGGAG [CACACA_site9144]	7.7 ± 0.55
TTCTAATATTTTTGCACACTAAACAATAAATTTCCT [CACACA_site3944]	9.45 ± 0.18
TATATTACTTTGTGTTGTACGGAAATATATATATAT [XGTACX_site4309]	9.205 ± 0.064
AATATTCAATATATATATATATATAATATTAATATA [GTGCAC_negctrl_site571]	7.54 ± 0.35
AAGGATTTTTTATACACACACTAACTAATGTATATA [CACACA_site7163]	7.71 ± 0.68
TAATACCATAACAAGTGTACATAAATAATTATTGTA [XGTACX_site4949]	7.92 ± 0.45
ATATTTTATTTAATTACACACAATATTGCAATTTGT [CACACA_site669]	8.35 ± 0.53
ATCAACATTATGGTTAGTACTTAGTGAATTGTTAAT [XGTACX_site4926]	7.63 ± 0.59
TTATACACCTTTCATTGTACATATAATTTATATTCT [XGTACX_site8685]	8.21 ± 0.76
GTGTAATATATTTTTCGTACATATTATATATATATA [XGTACX_site1675]	9.015 ± 0.049
TCTTCTAATTTACCTACACACAGGAGATATATAAAT [CACACA_site6276]	7.89 ± 0.51
TAATTAATTTATTAGTTGCACTGTACCATTAGAGTA	9 ± 0.11

Sequence	gcPBM binding intensity (ln)
GTTCATAAATTAAACACACACACACCCCTGGATACC [CACACA_site3331]	9.115 ± 0.021
TATATATATATATATTGTACAAAATATTTATATGTT [XGTACX_site436]	9.41 ± 0.44
CTTATATATTGGGATAGTACTTTTAACTAAATAGAA [XGTACX_site5900]	7.76 ± 0.38
TGTTGTATTTTTACAACACACATTTAATCCATTTAA [CACACA_site1507]	7.49 ± 0.45
ACTTTACGAATTAAGAGTACTTATTTAAGGAACACT [XGTACX_site7919]	7.91 ± 0.49
TTTTTATTGAGATACTTATATAATTTTATGAATAAA [XGTACX_negctrl_site311]	7.79 ± 0.014
TTTTTTTGCTCTTTTTATATATATATATATATATAT [GTGCAC_negctrl_site70]	9.46 ± 0.27
TTTGAAAAGTTGAAATGTACACATTTACACATATTT [XGTACX_site1641]	7.8 ± 0.49
ATAATTATTCTTATGGTGCACTGAATATACATGTTG [GTGCAC_site9760]	11.1 ± 0.47
ATAGCACATTTTTAAGCACACGTTTATTATATATAT [CACACA_site6084]	8.94 ± 0.34
CAAAAATATATTTTTTGTACACAAAAAAAAAATAAA [XGTACX_site5229]	7.95 ± 0.22
AAATACATATCATGTAGTACATATATATGTAGGTTA [XGTACX_site5392]	7.75 ± 0.48
AAAACTATTAAATGTAGTACATAATTATTGAAATAA [XGTACX_site8716]	7.72 ± 0.22
CTTTCCCTATATTGCTGTACATGTATTCAAAAAACA [XGTACX_site353]	8.3 ± 0.42
CGCGAACATACATACACACACATATATATATCTGTA [CACACA_site4277]	7.88 ± 0.46
AACACCCAAAAACACACACACATACATACATACATA [CACACA_site4411]	8.24 ± 0.91
AACATTAATTTCCTATGTACTTAATATATTGTTTTT [XGTACX_site4440]	7.83 ± 0.66
ATTTATATATATGTATGTACGTATGTGTGTATATGT [XGTACX_site7587]	8.55 ± 0.27
